IC50 is the fitted dose that halves viability relative to control wells, and lower means more sensitive; a fit beyond the top or the lowest dose is shown as a bound at that dose. AUC sums up the same curve from the lowest dose to the 256-fold higher top dose: 1 means no effect, lower means more sensitive. A top dose marked as inferred comes from the curve model; the source does not state it.
Assays:
Experiment in all cases: Viability of human cancer cell lines after 72 h of drug (GDSC screen)
CCT007093 = compound: O=C1/C(=C/c2cccs2)CC/C1=C\c1cccs1 [CCT007093]; details: top dose 6.6 µM; top dose inferred
Protocol: (§1)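 Human cancer cell lines in 384-well plates, medium with 10% serum, drug for 72 h over a 256-fold dose range (nine 2-fold or five 4-fold steps up to the top dose). Adherent lines were fixed and stained with the nucleic acid dye Syto60, suspension lines read with resazurin; signal relative to control wells, capped at 0 and 100%. One two-parameter sigmoid per drug and line, fitted in a mixed model over all curves with the slope shared within a line.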

BAY 61-3606 = compound: COc1ccc(-c2cc3nccn3c(Nc3ncccc3C(N)=O)n2)cc1OC [BAY 61-3606]; details: top dose 8 µM; top dose inferred
Protocol: as §1

QL-XII-47 = compound: C=CC(=O)N1CCc2ccc(-n3c(=O)ccc4cnc5ccc(-c6cnn(C)c6)cc5c43)cc21 [QL-XII-47]; details: top dose 10.24 µM; top dose inferred
Protocol: as §1

KIN001-266 = compound: CCN1CCC(n2cc(CNc3cc(Cl)c4ncc(C#N)c(Nc5ccc(F)c(Cl)c5)c4c3)nn2)CC1 [KIN001-266]; details: top dose 20 µM; top dose inferred
Protocol: as §1

| Cell Line | AUC (CCT007093) | IC50 (CCT007093) [µM] | AUC (BAY 61-3606) | IC50 (BAY 61-3606) [µM] | AUC (QL-XII-47) | IC50 (QL-XII-47) [µM] | AUC (KIN001-266) | IC50 (KIN001-266) [µM] |
| --- | --- | --- | --- | --- | --- | --- | --- | --- |
| DoTc2-4510 (cervix, adherent) | 0.953 | > 6.6 | 0.633 | 1.14 | 0.774 | 3.8 | 0.969 | > 20 |
| EB2 (Burkitt lymphoma, suspension) | 0.981 | > 6.6 | 0.6 | 0.914 | 0.388 | 0.325 | 0.73 | 5.22 |
| EB-3 (Burkitt lymphoma, suspension) | 0.977 | > 6.6 | 0.755 | 3.12 | 0.535 | 0.808 | 0.762 | 8.29 |
| EBC-1 (lung squamous cell carcinoma, adherent) | 0.979 | > 6.6 | 0.92 | > 8 | 0.703 | 2.59 | 0.879 | > 20 |
| EC-GI-10 (oesophagus, adherent) | 0.969 | > 6.6 | 0.989 | > 8 | 0.989 | > 10.2 | 0.968 | > 20 |
| ECC10 (stomach, suspension) | 0.959 | > 6.6 | 0.609 | 1.01 | 0.545 | 0.855 | 0.893 | > 20 |
| EFM-19 (breast, adherent) | 0.975 | > 6.6 | 0.961 | > 8 | 0.499 | 0.633 | 0.783 | 13.6 |
| EFM-192A (breast, adherent) | 0.969 | > 6.6 | 0.508 | 0.526 | 0.71 | 2.7 | 0.98 | > 20 |
| EFO-21 (ovary, adherent) | 0.957 | > 6.6 | 0.914 | > 8 | 0.875 | > 10.2 | 0.905 | > 20 |
| EFO-27 (ovary, adherent) | 0.956 | > 6.6 | 0.708 | 2.27 | 0.767 | 4.78 | 0.863 | > 20 |
| EGI-1 (biliary tract, adherent) | 0.981 | > 6.6 | 0.981 | > 8 | 0.725 | 3.44 | 0.958 | > 20 |
| EJM (lymphoid neoplasm, semi-adherent) | 0.991 | > 6.6 | 0.886 | 6.38 | 0.793 | 3.87 | 0.88 | 15 |
| EKVX (lung adenocarcinoma, adherent) | 0.888 | > 6.6 | 0.867 | > 8 | 0.947 | > 10.2 | 0.912 | > 20 |
| EM-2 (chronic myeloid leukaemia, suspension) | 0.982 | > 6.6 | 0.884 | > 8 | 0.65 | 1.76 | 0.868 | > 20 |
| EN (endometrium, adherent) | 0.982 | > 6.6 | 0.89 | > 8 | 0.887 | > 10.2 | 0.87 | > 20 |
| EPLC-272H (lung squamous cell carcinoma, adherent) | 0.98 | > 6.6 | 0.788 | 4 | 0.603 | 1.27 | 0.864 | > 20 |
| ES1 (Ewing sarcoma, adherent) | 0.985 | > 6.6 | 0.727 | 2.18 | 0.505 | 0.661 | 0.867 | 17.5 |
| ES3 (Ewing sarcoma, adherent) | 0.973 | > 6.6 | 0.757 | 2.89 | 0.715 | 2.7 | 0.83 | 13.5 |
| ES5 (Ewing sarcoma, adherent) | 0.976 | > 6.6 | 0.777 | 3.72 | 0.564 | 0.985 | 0.837 | 16.2 |
| ES6 (Ewing sarcoma, adherent) | 0.974 | > 6.6 | 0.642 | 1.36 | 0.475 | 0.538 | 0.84 | 18.8 |
| ES7 (Ewing sarcoma, adherent) | 0.979 | > 6.6 | 0.635 | 1.19 | 0.463 | 0.506 | 0.769 | 7.75 |

| Cell Line | AUC (CCT007093) | IC50 (CCT007093) [µM] | AUC (BAY 61-3606) | IC50 (BAY 61-3606) [µM] | AUC (QL-XII-47) | IC50 (QL-XII-47) [µM] | AUC (KIN001-266) | IC50 (KIN001-266) [µM] |
| --- | --- | --- | --- | --- | --- | --- | --- | --- |
| ES8 (Ewing sarcoma, adherent) | 0.963 | > 6.6 | 0.831 | 4.55 | 0.682 | 1.98 | 0.668 | 3.52 |
| ES-2 (ovary, adherent) | 0.99 | > 6.6 | 0.957 | > 8 | 0.671 | 1.79 | 0.885 | 17.2 |
| ESS-1 (endometrium, adherent) | 0.99 | > 6.6 | 0.811 | 3.71 | 0.76 | 3.28 | 0.99 | > 20 |
| ETK-1 (biliary tract, adherent) | 0.949 | > 6.6 | 0.823 | 5.57 | 0.573 | 1.04 | 0.768 | 8.47 |
| EVSA-T (breast, adherent) | 0.991 | > 6.6 | 0.979 | > 8 | 0.778 | 3.56 | 0.857 | 12.7 |
| EW-1 (Ewing sarcoma, semi-adherent) | 0.982 | > 6.6 | 0.65 | 1.25 | 0.649 | 1.59 | 0.844 | 12.6 |
| EW-3 (Ewing sarcoma, adherent) | 0.978 | > 6.6 | 0.815 | 5.2 | 0.83 | 7.74 | 0.868 | > 20 |
| EW-7 (Ewing sarcoma, semi-adherent) | 0.964 | > 6.6 | 0.717 | 1.88 | 0.637 | 1.45 | 0.703 | 4.28 |
| EW-11 (Ewing sarcoma, adherent) | 0.981 | > 6.6 | 0.835 | 7.59 | 0.735 | 3.72 | 0.848 | > 20 |
| EW-13 (Ewing sarcoma, suspension) | 0.985 | > 6.6 | 0.697 | 1.92 | 0.639 | 1.62 | 0.704 | 5.02 |
| EW-16 (Ewing sarcoma, adherent) | 0.985 | > 6.6 | 0.687 | 1.72 | 0.894 | > 10.2 | 0.814 | 11.5 |
| EW-18 (Ewing sarcoma, suspension) | 0.984 | > 6.6 | 0.807 | 4.44 | 0.72 | 2.82 | 0.873 | > 20 |
| EW-24 (Ewing sarcoma, semi-adherent) | 0.986 | > 6.6 | 0.964 | > 8 | 0.993 | > 10.2 | 0.787 | 7.58 |
| EoL-1-cell (haematopoietic neoplasm, suspension) | 0.941 | > 6.6 | 0.433 | 0.335 | 0.779 | 3.69 | 0.852 | 12.7 |
| FADU (head and neck, adherent) | 0.881 | 6.49 | 0.959 | > 8 | 0.854 | 7.6 | 0.899 | > 20 |
| FTC-133 (thyroid, adherent) | 0.978 | > 6.6 | 0.958 | > 8 | 0.986 | > 10.2 | 0.977 | > 20 |
| FU97 (stomach, adherent) | 0.969 | > 6.6 | 0.888 | > 8 | 0.849 | 8.05 | 0.861 | 17.7 |
| FU-OV-1 (ovary, adherent) | 0.914 | > 6.6 | 0.733 | 2.89 | 0.834 | 9.81 | 0.874 | > 20 |
| Farage (B-cell lymphoma, suspension) | 0.991 | > 6.6 | 0.576 | 0.777 | 0.448 | 0.475 | 0.891 | 15.9 |
| G-292 Clone A141B1 (osteosarcoma, adherent) | 0.864 | > 6.6 | 0.868 | > 8 | 0.865 | > 10.2 | 0.948 | > 20 |
| G-401 (kidney, adherent) | 0.973 | > 6.6 | 0.78 | 3.64 | 0.69 | 2.3 | 0.795 | 10.3 |

| Cell Line | AUC (CCT007093) | IC50 (CCT007093) [µM] | AUC (BAY 61-3606) | IC50 (BAY 61-3606) [µM] | AUC (QL-XII-47) | IC50 (QL-XII-47) [µM] | AUC (KIN001-266) | IC50 (KIN001-266) [µM] |
| --- | --- | --- | --- | --- | --- | --- | --- | --- |
| G-402 (soft tissue, adherent) | 0.947 | > 6.6 | 0.77 | 4.08 | 0.705 | 2.96 | 0.867 | > 20 |
| G-MEL (melanoma, adherent) | 0.966 | > 6.6 | 0.672 | 1.5 | 0.46 | 0.498 | 0.853 | 15.4 |
| GAMG (glioma, adherent) | 0.936 | > 6.6 | 0.951 | > 8 | 0.453 | 0.474 | 0.852 | 16.6 |
| GB-1 (glioma, adherent) | 0.966 | > 6.6 | 0.738 | 2.75 | 0.715 | 2.94 | 0.845 | 18.5 |
| GCIY (stomach, adherent) | 0.931 | > 6.6 | 0.983 | > 8 | 0.972 | > 10.2 | 0.933 | > 20 |
| GCT (soft tissue, adherent) | 0.988 | > 6.6 | 0.535 | 0.617 | 0.747 | 3.08 | 0.983 | > 20 |
| GDM-1 (acute myeloid leukaemia, suspension) | 0.987 | > 6.6 | 0.553 | 0.694 | 0.439 | 0.441 | 0.871 | 17.4 |
| GI-1 (glioma, adherent) | 0.982 | > 6.6 | 0.846 | 5.47 | 0.684 | 2.04 | 0.87 | 17.3 |
| GI-ME-N (neuroblastoma, adherent) | 0.931 | > 6.6 | 0.882 | > 8 | 0.584 | 1.18 | 0.824 | 18.2 |
| GMS-10 (glioma, adherent) | 0.976 | > 6.6 | 0.965 | > 8 | 0.954 | > 10.2 | 0.986 | > 20 |
| GOTO (neuroblastoma, adherent) | 0.974 | > 6.6 | 0.787 | 4.02 | 0.818 | 6.82 | 0.81 | 12.3 |
| GP5d (large intestine, adherent) | 0.991 | > 6.6 | 0.91 | > 8 | 0.875 | 8.3 | 0.883 | 17.5 |
| GRANTA-519 (B-cell lymphoma, suspension) | 0.991 | > 6.6 | 0.949 | > 8 | 0.629 | 1.4 | 0.885 | 18 |
| GT3TKB (stomach, adherent) | 0.987 | > 6.6 | 0.958 | > 8 | 0.746 | 2.92 | 0.967 | > 20 |
| H9 (lymphoid neoplasm, suspension) | 0.992 | > 6.6 | 0.908 | 7.63 | 0.626 | 1.33 | 0.891 | 16.1 |
| H513 (mesothelioma, semi-adherent) | 0.985 | > 6.6 | 0.984 | > 8 | 0.903 | > 10.2 | 0.976 | > 20 |
| H2369 (mesothelioma, adherent) | 0.986 | > 6.6 | 0.339 | 0.176 | 0.978 | > 10.2 | 0.944 | > 20 |
| H2373 (mesothelioma, adherent) | 0.983 | > 6.6 | 0.877 | > 8 | 0.981 | > 10.2 | 0.947 | > 20 |
| H2461 (mesothelioma, adherent) | 0.983 | > 6.6 | 0.967 | > 8 | 0.86 | > 10.2 | 0.981 | > 20 |
| H2591 (mesothelioma, adherent) | 0.972 | > 6.6 | 0.911 | > 8 | 0.892 | > 10.2 | 0.918 | > 20 |
